Measurements: patent publication US6306899A (priority 1999, dated 2001)
Read-outs that look alike come from different tables or passages of the source.

Experiments:
HSV-1 = test: microbe, parasite or virus in culture; format: cell-based
HSV-II = test: microbe, parasite or virus in culture; format: cell-based
HSV-I TK strain = test: microbe, parasite or virus in culture; format: cell-based
HBsAg = settings: read-out: Anti-viral activity (ED50) HbsAg; 2.2.15 cells; 8640 min
Experimental: (§1) The biological activity of the present compounds was assessed as described by Doong, S-L, et al., Proc. Natl. Acad. Sci. U.S.A 88, 8495-8499 (1991). The human hepatoma cell line carrying HBV (cell line designated 2.2.15) provided by Dr. G. Aces was used in the study. Price, et al., Proc. Natl. Acad. Sci. U.S.A. 86, 8541 (1989). Briefly, six day-old cultures were treated with varying concentrations of the drug in the culture medium (Minimum essential medium with Earl's salts and 10% fetal bovine serum). The drug was left in the culture medium for a period of 3 days after which period the medium was aspirated and fresh medium containing the same concentration(s) of the drug was added. […] Inhibition of the viral replication was determined by the comparison of the viral DNA from drug-treated versus control cultures not treated with the drug. In addition, supernatant obtained from the polyethylene glycol precipitation of the cell culture medium (above) was measured for the presence of two HBV antigens (HBsAg and HBeAg) using enzyme immunoassay kits from Abbott Laboratories, Inc. [HBs (rDNA) EIA and HBe (rDNA)EIA], pursuant to standard practice (FIG. 3A). RNA levels were determed using Northern analysis with cellular albumin RNA being measured as a load control to standardize the quality of the HBV RNA measurement (FIG. 3B).

HBV = settings: 2.2.15 cells, 8640 min
Experimental: as §1

Row | SMILES | activity against HSV-I (HSV-1) | activity against HSV-II (HSV-II) | further results
1 | O=C1OCc2cc3ccc4c(c3c(-c3ccc5c(c3)OCO5)c21)OCO4 [ZHU-IX-139-2, 7,8-methylendioxy-1-(3',4'-methylenedioxyphenyl)-3-hydroxymethylnapthalene-2-carboxylic acid lactone] | inactive | inactive | –
2 | O=C1OC(=O)c2c1cc1cc3c(cc1c2-c1cc2c(cc1Br)OCO2)OCO3 [ZHU-IX-120-3, 6,7-methylenedioxy-1-(2'-bromo-4',5'-methylenedioxyphenyl)napthalene-2,3-dicarboxylic acid anhydride] | inactive | inactive | –
3 | Cc1c(C=O)cc2ccc3c(c2c1-c1ccc2c(c1)OCO2)OCO3 [ZHU-IX-189, 5,6-methylenedioxy-4-(3',4'-methylendioxyphenyl)-2-methylnapthalene-3-aldehyde] | inactive | inactive | –
4 | O=C1OC(=O)c2c1cc1c(Br)cc3c(c1c2-c1cc2c(cc1Br)OCO2)OCO3 [ZHU-IX-120-1, 5-bromo-7,8-methylenedioxy-1-(2'-bromo-4',5'-methylenedioxyphenyl)napthalene-2,3-dicarboxylic acid anhydride] | inactive | inactive | –
5 | O=C1OCc2c1cc1c(Br)cc3c(c1c2-c1cc2c(cc1Br)OCO2)OCO3 [ZHU-IX-143, 8,2'-dibromo-5,6-methylenedioxy-4-(4',5'-methylenedioxyphenyl)-3-hydroxymethylnapthalene-2-carboxylic acid lactone] | inactive | inactive | –
6 | Cc1c(CO)cc2ccc3c(c2c1-c1ccc2c(c1)OCO2)OCO3 [ZHU-IX-122-1, 3-methyl-5,6-methylenedioxy-4-(3',4'-methylenedioxyphenyl)-2-hydroxymethylnapthalene] | inactive | inactive | –
7 | OCc1cc2c(Br)cc3c(c2c(-c2ccc4c(c2)OCO4)c1CO)OCO3 [ZHU-IX-135-1, 2,3-dihydroxymethyl-5-bromo-7,8-methylenedioxy-1-(3', 4'-methylenedioxyphenyl)napthalene] | inactive | inactive | –
8 | O=C1OC(=O)c2c1c(Br)c1cc3c(cc1c2-c1cc2c(cc1Br)OCO2)OCO3 [ZHU-IX-120-2, 1-bromo-6,7-methylenedioxy-4-(2'-bromo-4', 5'-methylenedioxyphenyl)napthalene-2,3-dicarboxylic acid anyhdride] | inactive | inactive | –
9 | O=C1OCc2c1cc1ccc3c(c1c2-c1ccc2c(c1)OCO2)OCO3 [Compound 145, 7,8-methylenedioxy-1-(3',4'-methylenedioxyphenyl)-2-hydroxymethylnaphthalene-3-carboxylic acid lactone] | – | – | EC50 (HSV-1; Human alphaherpesvirus 1, read-out: ED50 against HSV-1): 1.1 µM; activity against HSV-I (HSV-1; in words): showed anti-HSV activity; EC50 (HSV-II; Human alphaherpesvirus 2, read-out: ED50 against HSV-II): 1.8 µM; activity against HSV-II (HSV-II; in words): showed anti-HSV activity; EC50 (HSV-I TK strain; Human alphaherpesvirus 1, read-out: ED50 against HSV-I TK strain): 8.5 µM; activity against HSV TK minus strain (HSV-I TK strain; in words): showed anti-HSV activity
10 | Cc1c(C(=O)O)cc2ccc3c(c2c1-c1ccc2c(c1)OCO2)OCO3 [ZHU-X-4] | inactive | inactive | –
11 | OCc1cc2ccc3c(c2c(-c2ccc4c(c2)OCO4)c1CO)OCO3 [ZHU-IX-124-2, 2,3-dihydroxymethyl-5,6-methylenedioxy-4-(3',4'-methylenedioxyphenyl)napthalene] | inactive | inactive | –
12 | Cc1c(C(=O)O)cc2ccc3c(c2c1-c1ccc2c(c1)OCO2)OCO3 [ZHU-X-10, sodium 5,6-methylenedioxy-4-(3',4'-methylenedioxyphenyl)-2-methylnapthalene-3-carbonate] | – | – | EC50 (HBsAg): > 10 µM; EC50 (HBV): > 10 µM
